The campaign covered roughly 360,000 compounds. About 25,000 (6.9%) were called active. The shares of active, inactive and inconclusive entries below differ from those in the screen. Calls follow the shape of the dose curve; as a rule, active = well fitted inhibition curve with a large enough effect; inconclusive = small, poorly fitted or top-dose-only effect; inactive = flat fitted curve, though single readings scatter. Where the call is inconclusive, the potency comes from a doubtful curve fit.
target: Luciferin 4-monooxygenase (Photinus pyralis) (UniProt P08659); experiment: qHTS profiling assay for firefly luciferase inhibitor/activator using purifed enzyme and Km concentrations of substrates (counterscreen for miR-21 project); conditions: purified FLuc, luminescence inhibition; series mostly up to 57.5 µM; also: nearly all actives have a fitted effect of over 55% in size
Chain of UniProt P08659 (P08659 whole entry, looked up): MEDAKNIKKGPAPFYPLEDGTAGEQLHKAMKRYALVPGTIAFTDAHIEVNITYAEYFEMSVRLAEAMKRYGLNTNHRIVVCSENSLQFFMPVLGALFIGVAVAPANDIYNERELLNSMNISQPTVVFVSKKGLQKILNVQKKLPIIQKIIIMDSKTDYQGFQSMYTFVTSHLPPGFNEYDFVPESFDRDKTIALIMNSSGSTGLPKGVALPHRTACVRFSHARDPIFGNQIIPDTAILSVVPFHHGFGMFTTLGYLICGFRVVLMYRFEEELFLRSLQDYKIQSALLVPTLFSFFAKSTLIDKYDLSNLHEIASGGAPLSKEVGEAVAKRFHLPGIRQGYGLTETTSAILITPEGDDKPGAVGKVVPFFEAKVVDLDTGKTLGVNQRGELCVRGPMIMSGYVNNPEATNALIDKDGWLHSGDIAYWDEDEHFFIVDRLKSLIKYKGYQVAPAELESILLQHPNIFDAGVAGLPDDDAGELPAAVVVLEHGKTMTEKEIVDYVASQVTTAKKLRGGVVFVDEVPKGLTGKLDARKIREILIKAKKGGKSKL
Summary of the method: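 Purified P. pyralis luciferase, 10 nM final, with Km-level 10 uM D-luciferin and 10 uM ATP in 50 mM Tris acetate pH 7.5, 10 mM Mg acetate, 0.01% Tween-20, 0.05% BSA; 6-point qHTS titration about 60 µM downward; luminescence read.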
Potency is read from the fitted curve at half-maximal effect; tags tell the direction and shape of the fitted curve.

Row | SMILES | Potency
1 | CN(C)c1ccc(/C=N/N=C2/SC(CC(=O)O)C(=O)N2c2ccc(O)cc2)cc1 (configuration not stated) | inconclusive: 26.9 µM [inhibitor, single point]
2 | Clc1ccc(-c2ncc3ccccn23)cc1 | inconclusive: 30.1 µM [inhibitor, partial curve, poor fit]
3 | CCOc1ccc2nc(SCC(=O)N(C)C3CCS(=O)(=O)C3)[nH]c2c1 (configuration not stated) | inactive
4 | COC1=C(Nc2ccc(O)cc2)C(=O)c2ccccc2C1=O | inconclusive: 15.1 µM [inhibitor, partial curve]
5 | O=C(O)c1cccc(N/N=C/c2cccnc2)c1 | active: 2.39 µM
6 | CC1CCC/C(=N\NC(=O)Nc2ccccc2)C1 (configuration not stated) | active: 15.1 µM
7 | O=C(CCNS(=O)(=O)c1cccs1)N1CCc2ccccc2C1 | inconclusive: 37.9 µM [inhibitor, partial curve, poor fit]
8 | CCOc1ccc(NC(=O)CN(C)C(=O)c2cn(-c3ccccc3)nc2-c2cccs2)cc1OCC | inconclusive: 23.9 µM [inhibitor, single point]
9 | CCCc1cc(=O)oc2cc(OCC(=O)Nc3ccc(S(N)(=O)=O)cc3)ccc12 | inactive
10 | COc1ccccc1C(=O)NCC(=O)N/N=C(\C)Cc1ccccc1 | inconclusive: 23.9 µM [inhibitor, single point]
11 | CCC(C)n1c(-c2cccs2)nc2nc3ccccc3nc21 (configuration not stated) | inconclusive: 37.9 µM [inhibitor, partial curve, poor fit]
12 | COc1ccc(C2=NOC(C(=O)Nc3ccc4c(c3)OCO4)C2)cc1OC (configuration not stated) | inconclusive: 23.9 µM [inhibitor, partial curve, poor fit]
13 | COc1ccc(-c2csc(-c3ccccc3)n2)c(OC)c1 | active: 3.38 µM
14 | c1ccc(-c2nc3nc4ccccc4nc3n2Cc2ccco2)cc1 | inconclusive: 19 µM [inhibitor, partial curve]
15 | CCNC(=S)NNC(=O)c1cc(-c2ccc(OCC)cc2)nc2ccccc12 | active: 0.0239 µM
16 | O=C(NCC1CCCN1S(=O)(=O)c1cccs1)C(=O)Nc1cccc(F)c1 (configuration not stated) | inconclusive: 23.9 µM [inhibitor, partial curve, poor fit]
17 | Cc1ccc(NC(=O)c2nc[nH]c2C(=O)NCc2ccccc2)cc1 | inactive
18 | Cc1cc(C)c2c(=O)[nH]c(SCC(=O)c3ccc(C)c(C)c3)nc2n1 | inconclusive: 15.1 µM [inhibitor, partial curve]
19 | O=C(CSc1ccc(-c2nc3ccccc3[nH]2)cn1)Nc1ccc2c(c1)OCCO2 | inconclusive: 0.536 µM [inhibitor, full curve, poor fit]
20 | CCCCCCCC#Cc1ccccc1/C=N/S(=O)c1ccc(C)cc1 (configuration not stated) | inconclusive: 23.9 µM [inhibitor, single point]
21 | CCc1ccc(NC(=O)CSc2nc3ccccc3nc2N2CCCCC2)cc1 | inconclusive: 26.9 µM [inhibitor, single point]
22 | CCn1c(C)nc2cc(C(=O)NNC(=S)Nc3ccc(F)cc3)ccc21 | inconclusive: 21.3 µM [inhibitor, single point]
23 | CCN(c1cccc(C)c1)S(=O)(=O)c1ccc(-c2coc(C)n2)cc1 | inactive
24 | O=C(c1ccccc1)c1ccc(OC(=O)N2CCOCC2)cc1 | inactive

Row | SMILES | Potency
25 | C=CCNc1oc(-c2cccc3ccccc23)nc1C#N | inconclusive: 19 µM [inhibitor, single point]
26 | O=C(N/N=C/c1ccc(N2CCOCC2)o1)c1cccc(F)c1 | inconclusive: 37.9 µM [inhibitor, single point]
27 | CC1(C)CC(=O)C2=C(C1)Nc1cc3c(cc1C2c1ccc2c(c1)OCO2)OCO3 (configuration not stated) | inconclusive: 10.7 µM [inhibitor, partial curve, poor fit]
28 | Cc1ccc(N=Cc2c(O)ccc3ccccc23)cc1F | inconclusive: 33.8 µM [inhibitor, single point]
29 | COc1cccc(-c2noc(COc3ccccc3Cl)n2)c1 | active: 10.7 µM
30 | Cc1c(NC(=S)NC(=O)c2cccc(Cl)c2)c(=O)n(-c2ccccc2)n1C | inactive
31 | CCN1CC(CN(C)Cc2cn(-c3cccc(C)c3)nc2-c2cccc(F)c2)CC1=O (configuration not stated) | inconclusive: 21.3 µM [inhibitor, single point]
32 | CC(C)Oc1ccc(CCN=C(N)N=C(N)N)cc1Cl | inconclusive: 26.9 µM [inhibitor, single point]
33 | O=C(N/N=C/c1cccc(OCC(=O)N2CCCC2)c1)C(=O)Nc1ccccc1F | inconclusive: 16.9 µM [inhibitor, partial curve]
34 | c1ccc(C(Cc2nc(-c3ccccn3)no2)c2ccccc2)cc1 | inconclusive: 26.9 µM [inhibitor, single point]
35 | COc1cc2c(cc1OC)C(c1ccc(-c3ccc(Cl)cc3Cl)o1)=NCC2 | active: 15.1 µM
36 | O=C(N/N=C/c1ccsc1)c1ccc2c(c1)OCO2 | active: 3.38 µM
37 | CC(C)c1nnc(NC(=O)c2cc3ccccc3o2)s1 | active: 6.75 µM
38 | CCc1cc(=O)oc2c(C)c(OCC(=O)NC3CC(C)(C)NC(C)(C)C3)ccc12 | inactive
39 | COc1cc2c(cc1NC(=O)CCC(=O)O)oc1ccccc12 | inconclusive: 23.9 µM [inhibitor, partial curve]
40 | O=C(Oc1ccc(Cl)cc1)c1cc(-c2ccc3c(c2)OCCO3)on1 | active: 6.01 µM
41 | Cc1cccc(C)c1NC(=S)N(CCCN1CCOCC1)Cc1cccnc1 | inactive
42 | COc1cc(/C=N/NC(=O)c2cc(-c3ccccc3OC(C)C)nc3ccccc23)ccc1O | inactive
43 | CCN(C(=O)COC(=O)c1cn(-c2ccccc2)nc1-c1ccccc1)C1CCS(=O)(=O)C1 (configuration not stated) | active: 23.9 µM
44 | CC(/C=N/NC(=O)c1cc(C(C)C)[nH]n1)=C\c1ccccc1 | inconclusive: 4.78 µM [inhibitor, full curve]
45 | CC(=O)Nc1cccc(C(=O)OCC(=O)c2ccc3c(c2)OCO3)c1 | active: 0.135 µM
46 | CC1(C)CC(=O)C(C(C#Cc2ccccc2)C2=C(O)CC(C)(C)CC2=O)=C(O)C1 | inconclusive: 16.9 µM [inhibitor, partial curve]
47 | COc1ccc(NC(=S)SC)cc1OC | inactive
48 | CN(Cc1ccccc1)S(=O)(=O)c1ccc(Cl)c(C(=O)O)c1 | inconclusive: 26.9 µM [inhibitor, partial curve, poor fit]

Row | SMILES | Potency
49 | CC1CCN(c2ccc(N3C(=O)C4CCCCC4C3=O)cc2[N+](=O)[O-])CC1 (configuration not stated) | inconclusive: 8.49 µM [inhibitor, partial curve, poor fit]
50 | CCC1=NN(C(=O)C(=O)Nc2ccc(Br)cc2)C(O)(C(F)(F)F)C1 (configuration not stated) | inconclusive: 37.9 µM [inhibitor, single point]
51 | CCOc1cc(/C=N/NC(=O)C2CC2)ccc1OC(C)C | inactive
52 | O=C(Nc1cccnc1)OC1CCCC1 | inconclusive: 10.7 µM [inhibitor, partial curve, poor fit]
53 | COc1ccc(OCC(=O)NNc2c3ccccc3nc3ccccc23)cc1 | inconclusive: 9.53 µM [inhibitor, partial curve, poor fit]
54 | COCCNc1oc(/C=C/c2ccc(F)cc2)nc1C#N | inconclusive: 42.6 µM [inhibitor, partial curve, poor fit]
55 | COc1cccc(/C=C(\C(=O)O)c2ccccc2)c1 | inconclusive: 12 µM [inhibitor, partial curve]
56 | COc1ccc(Nc2ncnc3c2cnn3-c2ccc(C)cc2)cc1Cl | active: 23.9 µM
57 | O=c1cc(-c2ccccc2)oc2ccc(O)cc12 | active: 9.53 µM
58 | Cc1cccc2c(C(=O)N3CCN(C(=O)c4ccco4)CC3)cc(-c3cccc(Br)c3)nc12 | inconclusive: 23.9 µM [inhibitor, partial curve, poor fit]
59 | Cc1ccc(Cn2c(C(=O)O)c(CNC3CCCC3)c3ccc(C)cc32)cc1 | inactive
60 | CC(C)N(CCCNC(=O)Cn1c(=O)c2cccn2c2ccccc21)Cc1ccccc1 | inactive
61 | CCOC(=O)N1CCC(NC(=O)c2cc3cc4cc(OC)ccc4nc3o2)CC1 | inconclusive: 37.9 µM [inhibitor, partial curve, poor fit]
62 | CCC(C(=O)O)N1C(=O)C2CCCCC2C1=O (configuration not stated) | inactive
63 | NS(=O)(=O)c1cccc(NC(=O)CSc2ccccn2)c1 | inconclusive: 26.9 µM [inhibitor, single point]
64 | O=C(NC(=O)c1ccccc1)Nc1ccccc1O | active: 1.9 µM
65 | CS(=O)(=O)Nc1cccc(C2=NN(S(=O)(=O)c3ccccc3)C(c3ccco3)C2)c1 (configuration not stated) | inactive
66 | COc1cccc(CNC(=O)c2cnc(N3CCCCC3)c3ccccc23)c1 | inconclusive: 37.9 µM [inhibitor, partial curve, poor fit]
67 | c1ccc(-c2nc3ccccc3o2)nc1 | inconclusive: 15.1 µM [inhibitor, partial curve, poor fit]
68 | O=C(Nc1cccnc1)c1ccc2c(c1)OCO2 | inconclusive: 37.9 µM [inhibitor, partial curve, poor fit]
69 | Cc1ccc(NC(=O)NNC(=O)c2ccc3c(c2)NC(=O)C(C)(C)O3)cc1 | inactive
70 | Cc1cc(OCC(=O)Nc2cccc(S(=O)(=O)N3CCCCC3)c2)ccc1Cl | active: 6.75 µM
71 | Cc1ccccc1-c1cc2nc(-c3ccc([N+](=O)[O-])cc3)cc(=O)n2[nH]1 | inconclusive: 33.8 µM [inhibitor, partial curve, poor fit]
72 | COc1ccc(-n2nc(C(=O)NCC(=O)N3CCC(C(N)=O)CC3)c3ccccc3c2=O)cc1OC | active: 12 µM

From PubChem BioAssay AID588342 (National Center for Advancing Translational Sciences (NCATS), 2011)
